The campaign covered roughly 360,000 compounds. About 510 (0.14%) were called active. The shares of active, inactive and inconclusive entries below differ from those in the screen.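 How the source made its calls: active means mean normalized replicate activity at least 40 and at least half of replicates scoring 40 or more; inconclusive means only one of the two criteria met; inactive means mean below 40 and under half of replicates reaching 40.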
molecular target: DNA repair and recombination protein RAD54-like (Homo sapiens) (UniProt Q92698); assay: inhibitors of human RAD54 branch migration, primary screen, biochemical, fluorescence, single point (AID 602329); conditions: RAD54 Holliday junction branch migration, FAM/BHQ fluorescence; at 10.4 µM; stronger effect = higher value;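 further: 0% = median of neutral control wells and 100% = median of positive control wells; inhibitors cause a drop in the FAM fluorescence signal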
Sequence of UniProt Q92698 (Q92698 whole entry, looked up): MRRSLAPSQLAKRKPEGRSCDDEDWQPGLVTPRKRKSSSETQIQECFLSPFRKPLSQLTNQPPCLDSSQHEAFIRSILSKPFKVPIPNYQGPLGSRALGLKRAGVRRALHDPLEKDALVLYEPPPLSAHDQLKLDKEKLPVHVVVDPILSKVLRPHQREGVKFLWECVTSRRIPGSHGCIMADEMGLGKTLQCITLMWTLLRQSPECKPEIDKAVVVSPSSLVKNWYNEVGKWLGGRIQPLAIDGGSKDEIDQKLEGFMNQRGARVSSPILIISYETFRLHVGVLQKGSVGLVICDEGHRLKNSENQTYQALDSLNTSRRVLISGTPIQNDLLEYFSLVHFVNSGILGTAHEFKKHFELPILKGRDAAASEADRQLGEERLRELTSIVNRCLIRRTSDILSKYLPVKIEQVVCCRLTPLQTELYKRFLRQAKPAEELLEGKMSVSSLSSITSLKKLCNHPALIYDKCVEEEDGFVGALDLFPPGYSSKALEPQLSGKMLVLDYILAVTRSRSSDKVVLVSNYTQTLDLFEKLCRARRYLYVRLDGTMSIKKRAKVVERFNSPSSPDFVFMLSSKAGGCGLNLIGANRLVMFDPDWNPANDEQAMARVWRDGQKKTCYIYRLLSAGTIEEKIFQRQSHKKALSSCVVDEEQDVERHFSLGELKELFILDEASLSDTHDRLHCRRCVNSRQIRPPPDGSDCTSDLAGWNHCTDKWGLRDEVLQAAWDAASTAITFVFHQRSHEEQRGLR

| Structure (SMILES) | inhibition |
| --- | --- |
| CCn1nc(-c2cccs2)nc2c(=O)n(C)c(=O)nc1-2 | inconclusive: 49.5% |
| Nc1ccc(CCN2CCCC2)cc1 | inconclusive: 40.1% |
| CC[N+](C)(CC)CCCCOc1ccc2c(c1)C(=O)c1cc(OCCCC[N+](C)(CC)CC)ccc1-2 | active: 99.5% |
| Cc1nccc2c1[nH]c1ccccc12 | inconclusive: 45% |
| CC(C)(C)n1cc(C(=O)c2ccccc2)cc1-c1ccccc1 | inactive: 1.3% |
| Cc1ccc(-c2nc(N(C)C3CCN(C)CC3)c3ccccc3n2)cc1 | active: 96.5% |
| COc1ccc(C#Cc2ccc([C@@H]3[C@@H](CO)N4CCCCN(C(=O)Cc5cccnc5)C[C@@H]34)cc2)cc1 | inactive: -0.971% |
| O=C(NC1CN2CCC1CC2)c1cc(Cl)c([N+](=O)[O-])c2nc[nH]c12 (stereo unspecified) | active: 56.1% |
| CC1=C[C@@H]2c3cccc4[nH]cc(c34)C[C@H]2N(C)C1 | inconclusive: 47.4% |
| CC(Cc1ccccc1)NCC(=O)Nc1cc(N(C)C)nc2ccccc12 (stereo unspecified) | inconclusive: 49.1% |
| CN1CCN(c2cccc3c2C(=O)c2ccccc2C3=O)CC1 | active: 78.9% |
